Out of some 390,000 compounds screened, about 4,700 (1.2%) were called active. Inconclusive results, whose numbers are uncertain, are shown with a selection of clear calls. The call rests on the fitted dose curve; in most records, active means well fitted inhibition curve with a large enough effect; inconclusive means small, poorly fitted or top-dose-only effect, or another doubt; inactive means no such curve, though single readings can be large or run the other way. Where the call is inconclusive, the potency comes from a doubtful curve fit.
Target: DNA polymerase eta (Homo sapiens) (UniProt Q9Y253)
Assay: qHTS for Inhibitors of Polymerase Eta
Settings: recombinant Pol eta, fluorescent DNA replication assay; series mostly up to 114 µM; activity change, negative = inhibition: at the top concentration
Summary of the method: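 Fluorescent replication assay: 50 nM final substrate added after a 15 min room-temperature compound preincubation with 10 nM enzyme. Signal taken at 0 min and again at 10 min.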
On the % scale 0 is the no-effect control and ±100 the full control effect; potency means the concentration at half of the fitted maximal effect; tags describe the fitted curve by direction and shape.

Sequence of UniProt Q9Y253 (Q9Y253 whole entry, looked up): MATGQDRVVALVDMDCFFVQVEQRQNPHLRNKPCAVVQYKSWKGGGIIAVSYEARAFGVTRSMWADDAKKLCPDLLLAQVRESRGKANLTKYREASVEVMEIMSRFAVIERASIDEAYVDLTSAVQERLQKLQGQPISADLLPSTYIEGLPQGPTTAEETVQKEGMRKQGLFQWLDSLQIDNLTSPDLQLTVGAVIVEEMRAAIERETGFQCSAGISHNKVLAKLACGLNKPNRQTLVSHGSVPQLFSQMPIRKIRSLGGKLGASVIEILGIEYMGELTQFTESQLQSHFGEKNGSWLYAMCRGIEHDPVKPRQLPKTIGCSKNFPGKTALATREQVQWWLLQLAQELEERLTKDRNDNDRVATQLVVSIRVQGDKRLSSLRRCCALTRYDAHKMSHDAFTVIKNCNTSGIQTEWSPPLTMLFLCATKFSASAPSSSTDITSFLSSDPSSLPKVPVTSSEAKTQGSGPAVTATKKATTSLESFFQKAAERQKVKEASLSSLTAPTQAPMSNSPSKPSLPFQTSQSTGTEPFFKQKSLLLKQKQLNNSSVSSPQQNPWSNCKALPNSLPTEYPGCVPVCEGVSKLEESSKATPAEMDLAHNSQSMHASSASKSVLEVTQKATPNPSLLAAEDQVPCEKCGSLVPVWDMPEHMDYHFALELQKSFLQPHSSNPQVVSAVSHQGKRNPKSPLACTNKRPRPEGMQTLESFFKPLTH

| Compound | Potency | activity change, negative = inhibition |
| --- | --- | --- |
| O=S(=O)(Nc1c(S(=O)(=O)c2ccccc2)c2nc3ccccc3nc2n1C1CCCCC1)c1ccccc1 | active: 22.4 µM |  |
| Cc1ccc2c(Sc3ccc(Cl)cc3)c(C(=O)N3CCC(C)CC3)[nH]c2c1 | inconclusive: 44.7 µM [inhibitor, partial curve, poor fit] |  |
| CC1CCCCN1C(=O)COC(=O)C1CCN(S(=O)(=O)c2c(Cl)cccc2Cl)CC1 (centres undefined) | inconclusive: 89.1 µM [inhibitor, partial curve, poor fit] |  |
| CCC(CO)Oc1cc(NC(=O)c2ccccc2F)c2ncn(C(C)C)c2c1 (centres undefined) | inconclusive: 89.1 µM [inhibitor, single point] |  |
| CCc1nnc(SCCSc2nnc(CC)n2N)n1N |  | inactive: -0.466% |
| O=C1NC(=Nc2ccc(Cl)cc2)/C(=C/c2ccco2)S1 | active: 56.2 µM |  |
| COc1ccc(CCCc2nnc(SCC(=O)Nc3ccc(C)cc3)o2)cc1 | inconclusive: 89.1 µM [inhibitor, partial curve, poor fit] |  |
| O=[N+]([O-])c1cccc(N/N=C/c2cc([N+](=O)[O-])ccc2O)c1 |  | inactive: 3.17% |
| CC(=O)O[C@H]1C[C@@H]2CCC3C(CC[C@@]4(C)[C@H]3C[C@H]([N+]3(C)CCCCC3)[C@@H]4OC(C)=O)[C@@]2(C)C[C@@H]1[N+]1(C)CCCCC1 (some centres undefined) |  | inactive: -6.26% [at 57.1 µM] |
| Cc1ccc(NC(=O)Cn2cnc3sc(C(=O)O)c(C)c3c2=O)cc1Cl |  | inactive: -18.7% |
| COc1cc(NC(=O)CN(c2ccc(C)cc2)S(=O)(=O)c2cccc3nonc23)cc(OC)c1 | inconclusive: 50.1 µM [inhibitor, partial curve, poor fit] |  |
| CCc1cccc(NC(=O)CSC2=Nc3ccccc3N=C(c3ccc(F)cc3)C2)c1 |  | inactive: -13% |
| CCNC(=O)c1c(NC(=O)C2COc3ccccc3O2)sc2c1CCCC2 (centres undefined) |  | inactive: 2.68% |
| CCOc1cc(CNc2ccc(O)cc2)ccc1OCc1ccc(Cl)cc1Cl | active: 17.8 µM |  |
| CN(Cc1c(F)cccc1Cl)C(=O)CCc1c[nH]c2ccccc12 | inconclusive: 11.2 µM [inhibitor, partial curve, poor fit] |  |
| O=C(O)c1ccc(COCC(F)(F)C(F)F)o1 | active: 17.8 µM |  |
| O=C(Cn1cc(S(=O)(=O)Cc2ccccc2)c2ccccc21)Nc1ccccc1 | inconclusive: 10 µM [inhibitor, partial curve, poor fit] |  |
| Cc1ccc(OCc2ccc(C(=O)O)o2)c([N+](=O)[O-])c1 | inconclusive: 28.2 µM [inhibitor, partial curve] |  |
| Cc1nn(-c2ccc(F)cc2)c(Cl)c1/C=N/NC(=O)c1cccs1 | inconclusive: 22.4 µM [inhibitor, single point] |  |
| c1cncc(-c2nc(-c3ccc4c(c3)OCO4)cs2)c1 | inconclusive: 22.4 µM [inhibitor, single point] |  |
| CC(=O)c1ccc(CCCCCCCCCC(=O)O)s1 | inconclusive: 31.6 µM [inhibitor, partial curve, poor fit] |  |
| Cc1cccc(C)c1OCC(C)N (centres undefined) | inactive |  |

| Compound | Potency | activity change, negative = inhibition |
| --- | --- | --- |
| O=c1c2ccccc2nc2sc(Nc3ccc(F)cc3)nn12 |  | inactive: -8.04% |
| COc1ccc(N(CCN2C(=O)c3ccccc3C2=O)C(=O)c2cccc([N+](=O)[O-])c2)cc1 | inconclusive: 89.1 µM [inhibitor, partial curve, poor fit] |  |
| O=C(N/N=C/C(Br)=C/c1ccccc1)c1ccccc1F |  | inactive: -1.65% |
| Cc1sc2nc3ccc(N4CCCCC4)nn3c(=O)c2c1C | inconclusive: 25.1 µM [inhibitor, single point] |  |
| CCOC(=O)/C(=C/c1ccc(N2CCC(c3ccccc3)=N2)cc1)C(C)=O | inconclusive: 56.2 µM [inhibitor, partial curve, poor fit] |  |
| Cc1ccc(NC(=O)Cn2nnc(C(=O)NCc3ccccc3)c2N)cc1C | inconclusive: 17.8 µM [inhibitor, partial curve] |  |
| CCOC(=O)c1scc(-c2ccccc2)c1S(=O)(=O)Nc1cc(OC)cc(OC)c1 | inconclusive: 79.4 µM [inhibitor, partial curve, poor fit] |  |
| Cc1ccc(/C=C2/NC(=O)N(Cc3ccc(Br)cc3)C2=O)o1 |  | inactive: -1.83% |
| COc1ccc(N2CCN(C(=O)Cc3coc4cc(C)ccc34)CC2)cc1 | inconclusive: 89.1 µM [inhibitor, partial curve, poor fit] |  |
| NC(=O)c1c(NC(=O)C2CCCO2)sc2c1CCCC2 (centres undefined) |  | inactive: -20.9% |
| Cc1ccc(S(=O)(=O)Nc2ccccc2-c2ccccc2NS(=O)(=O)c2ccc(C)cc2)cc1 | inconclusive: 50.1 µM [inhibitor, partial curve] |  |
| Cc1ccn2c(=O)nc(SCC(=O)NC3CCCC3)nc2c1 | active: 22.4 µM |  |
| Cc1ccc(CNC(=O)c2ccc(CSCc3ccccc3C)o2)cc1 |  | inactive: -9.29% |
| COc1ccc([C@H]2[C@H](C(=O)C(C)(C)C)N3N=Cc4ccccc4C3[C@]23N=C(c2ccccc2)OC3=O)cc1OC (some centres undefined) | inconclusive: 89.1 µM [inhibitor, partial curve, poor fit] |  |
| Cc1cc(C(=O)N/N=C/c2ccc(-c3ccc([N+](=O)[O-])cc3Cl)o2)n[nH]1 | inconclusive: 44.7 µM [inhibitor, partial curve] |  |
| O=C(Oc1cc(=O)oc2ccccc12)c1ccccc1 |  | inactive: -22.1% |
| Cn1cc(C(=O)NCC(=O)Nc2ccccc2Br)cn1 |  | inactive: -3.69% |
| COc1cc(/C=C2\SC(=S)N(NC(=O)c3ccccc3O)C2=O)ccc1O | inconclusive: 15.8 µM [inhibitor, full curve, poor fit] |  |
| Cc1nn(-c2ccc(F)cc2)c2nc(N)c(C#N)c(-c3ccc(O)c(O)c3)c12 | inconclusive: 50.1 µM [inhibitor, partial curve] |  |
| O=C(O)COc1ccc(/C=C/c2ccc3cccc([N+](=O)[O-])c3n2)cc1 | active: 20 µM |  |
| CN(C)c1nc(-c2ccccc2)ncc1S(=O)(=O)c1ccccc1 | inconclusive: 100 µM [inhibitor, partial curve, poor fit] |  |
| O=C(Nc1ccc(S(=O)(=O)Nc2nccs2)cc1)c1cc(-c2ccccc2Cl)nc2ccccc12 | active: 28.2 µM |  |
